Laboratory results from the supplement of paper PMC10338343.
± gives the standard deviation. Over roughly 5,500 sequences, “pre-steady-state target cleavage rate” has its median near 0.1; the highest 2% begin near 0.64. Only a part is listed here, and it is no random draw.

What follows are sequences tested on MIWI (PIWIL1) piRISC loaded with piRNA #2 (30 nt) (assay: pre-steady-state target cleavage rate (min^-1); MIWI and MILI are mouse PIWI proteins and EfPiwi is from a freshwater sponge; tags in brackets are library labels; higher = faster piRNA-guided slicing of the target). Details: guide: piRNA #2 5'p-UUAGGUAACCCAGUAGAUCCAGAGGAAUUC; auxiliary factor: 500 nM mouse GTSF1.
Description: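 Cleave-'n-Seq: a library of target RNAs (target site embedded in constant flanks, ACAGCATTCCGCGTTAGTGATATCCG... 5' flank; DNA-blocked outside the site) at 0.1 nM was incubated with 1 nM active mouse MILI or MIWI piRISC (synthetic 5'-monophosphorylated piRNA guide) with or without 500 nM mouse GTSF1 at 33 °C for 1 min to 16 h. Uncleaved targets were sequenced and normalised to non-target controls, and the pooled three trials were fitted to a burst-and-steady-state model to give the pre-steady-state cleavage rate (min^-1; k3 is constrained to at most 1e-4). Sequence is the target site only; target names encode pairing extent (gX:gY) and contiguous / 1-mismatch / 2-mismatch / bulge geometry. Fits with R² ≤ 0 are excluded.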

Sequence | pre-steady-state target cleavage rate
CUUAUGGUCUGGAUCUACUGGGUUACCUAA | 0.285 ± 0.027
CUUAUCCUCUGGUUCUACUGGGUUACCAAA | 0.266 ± 0.056
CUUAAGCUCUGAGAUCUACUGGGUUACCUAA | 0.231 ± 0.022
CUUAAGGAGUGGAUCUACUGCGUUAGCUAA | 0.00745 ± 0.0066
CUUAAGCUCUGGAUCUACUGUGUUACCUAA | 0.45 ± 0.051
CAAUUCCUCAGGAUCUACUGGGUUACGUAA | 0.594 ± 0.058
CAAUUGCACUGGAUCUACUGGGUUACCUAA | 0.388 ± 0.056
CUUAAGGUGUGGAUCAACUGGGUUACCUAA | 0.0298 ± 0.0095
CUUAACCUCUGGACUCUACUGGGUUACCUAA | 0.0961 ± 0.011
CUUAUCCACUGGUUCUACUGGGUUACCUAA | 0.367 ± 0.025
CUUUUCCUUCUGGAUCUACUGGGUUACCUAA | 0.455 ± 0.051
CAAUUCCUGUGGAUCUUCUGGGUUACCUAA | 0.309 ± 0.065
CAAUUCCUCUGUAUCUACUGGGUUACCUAA | 0.479 ± 0.058
GAAUUCGUCUGGAUCUACUGGGUUACCAAA | 0.327 ± 0.056
CUUAUCCACUGGAUCUACUGGGUUACCUUA | 0.383 ± 0.055
CUAUUGCUCUGGAUCUACUGGGUUUCCUAA | 0.15 ± 0.028
CUUAAGGACUGGAUCUACUGGGUUAGCCUAA | 0.0629 ± 0.041
CUUUACCUCAGGAUCUACUGGGUUACCUAA | 0.443 ± 0.046
CUUAAGGAGAGGAUCUACUGGGUUACUUAA | 0.0208 ± 0.0083
CAAAUCCACUGGAUCUACUGGGUUACCUAA | 0.493 ± 0.052
CUUUUCCUCUGGACCUACUGGGUUACCUAA | 0.157 ± 0.02
CUAUUCCUCUGGAUCUACUGGCUUACCUAA | 0.105 ± 0.017
CUAUUCCUCUGGAUGUACUCGGUUACCUAA | 0.113 ± 0.022
CUUUUCCACUGGAUCUACUGGGUAACCUAA | 0.266 ± 0.043

Sequence | pre-steady-state target cleavage rate
CUUAAGGAGUGGAUCUACACCGUUACCUAA | 0.0034 ± 0.0022
CUUAAGGUCUGGAUCUUCUCGGUUACCUAA | 0.0252 ± 0.01
CUAUUCCUCUGGUUCUACUGGGUUAGCUAA | 0.309 ± 0.046
CUUAAGGAGUGGAUGUACUGGGUUACGUAA | 0.129 ± 0.043
CAAUUCCUCAGGAUGUACUGGGUUACCUAA | 0.538 ± 0.059
CUUUUCCUGUGGAUCAACUGGGUUACCUAA | 0.337 ± 0.029
CUUAAGGUCUGGAUCUACUGGGUUAACUAA | 0.225 ± 0.033
CUUAAGCGUCUGGAUCUACUGGGUUACCUAA | 0.266 ± 0.023
CAAUUCCUCUGCAUCAACUGGGUUACCUAA | 0.484 ± 0.033
CUUAAGGAGUGGAUCUAGUGGGUUACCUAA | 0.014 ± 0.0048
CUUAAGCUCUGGAUCUACCGGGUUACCUAA | 0.0507 ± 0.0083
CUUAACCUCUGGAUCUACUGGGUUAACCUAA | 0.245 ± 0.036
CUAUUCCUCUGGAUCUACUGGGUUAGGUAA | 0.0894 ± 0.024
CUUAAGCUCUGGAUCUAGUGGGUUAGCUAA | 0.0279 ± 0.0054
CUUAACCUCUGGAUCUACUGGGUUACCUA | 0.183 ± 0.025
CUUAACCUCUGGAAGUACUGGGUUACCUAA | 0.465 ± 0.031
CUUAAGCUCUGGAUCUACUCGGUUAGCUAA | 0.0319 ± 0.015
CAAUUCCUCUGGAUCUACUGGGUUACACUAA | 0.591 ± 0.072
CUUAUGCUCUGGAUCUUCUGGGUUACCUAA | 0.104 ± 0.012
CUUUUCCUCUGGAUCUACUGGGUAUACCUAA | 0.447 ± 0.051
GAUUUCCUCUGGAUCUACUCGGUUACCUAA | 0.0567 ± 0.017
CUAUUCCUCUGGAUCUUGUGGGUUACCUAA | 0.00448 ± 0.0026
CUUAAGGUCUGGAUGUACAGGGUUACCUAA | 0.0551 ± 0.013
CUUAUCCUCUGGAUCUACUGGGUUACUCUAA | 0.262 ± 0.045

Sequence | pre-steady-state target cleavage rate
GUAUUCCUCUGGAUCUUCUGGGUUACCUAA | 0.109 ± 0.035
GAAAUCCUCUGGAUCUACUGGGUUACCUUA | 0.199 ± 0.043
GAAUUCCUCUGGACCUACUGGGUUACCUAA | 0.139 ± 0.029
CUUAUCCUCUAGGAUCUACUGGGUUACCUAA | 0.235 ± 0.029
CUUAACCUCUGGUUCUACUGGGUUUCCUAA | 0.322 ± 0.1
CUUAACCUCUGGUUCUACUGGGUAACCUAA | 0.0813 ± 0.022
GAAUUCCUCUGGAUCUACUGGGUUACGUAA | 0.625 ± 0.057
CUUAACCUCUGGAUCUACUGGCUUACCUAA | 0.0719 ± 0.0085
CUUAACGUCUGGAUCUACUGGGUUACCUUA | 0.208 ± 0.027
CUAUUGCUCUGGAUCUACUCGGUUACCUAA | 0.0414 ± 0.011
CUUAACCUCUGGAUCUAUGGGUUACCUAA | 0.0113 ± 0.0029
CUUAAGCUCUCGAUCUACUGGGUUUCCUAA | 0.171 ± 0.025
CUUUUCCUCUGGAUCUACUCGGUUACGUAA | 0.0907 ± 0.029
GAAUUCCACUGGAUCUACUGGGUUACCUUA | 0.508 ± 0.064
CUUAACCUCUGGUUCUAGUGGGUUACCUAA | 0.162 ± 0.019
CUUAACCUCUGGAACUACUGGGAUACCUAA | 0.0426 ± 0.0073
CAUUUCCUCUGGAUCUACUGGGUUACGUAA | 0.622 ± 0.062
CUUAAGGUCUGGAUCUACUGGGAUACGUAA | 0.0894 ± 0.017
CAAUUCCAUCUGGAUCUACUGGGUUACCUAA | 0.568 ± 0.064
CUUUUCCUCUGGAUGUACUGGGUUACCAAA | 0.316 ± 0.037
CUUAACCUGUGGAUCUACUGGGUUACCAAA | 0.085 ± 0.011
CUUAAGCACUCGAUCUACUGGGUUACCUAA | 0.138 ± 0.021
CUUAAGGUCUGGUUCUACUCGGUUACCUAA | 0.0235 ± 0.022
GAAUUCCUGUGGAUCUACUGGGAUACCUAA | 0.174 ± 0.029
